In article PMC4352082 one finds binding data, which are given here for 3 molecules.

The chains behind the UniProt entries cited, without tags or fusion partners.
UniProt Q9UDY8: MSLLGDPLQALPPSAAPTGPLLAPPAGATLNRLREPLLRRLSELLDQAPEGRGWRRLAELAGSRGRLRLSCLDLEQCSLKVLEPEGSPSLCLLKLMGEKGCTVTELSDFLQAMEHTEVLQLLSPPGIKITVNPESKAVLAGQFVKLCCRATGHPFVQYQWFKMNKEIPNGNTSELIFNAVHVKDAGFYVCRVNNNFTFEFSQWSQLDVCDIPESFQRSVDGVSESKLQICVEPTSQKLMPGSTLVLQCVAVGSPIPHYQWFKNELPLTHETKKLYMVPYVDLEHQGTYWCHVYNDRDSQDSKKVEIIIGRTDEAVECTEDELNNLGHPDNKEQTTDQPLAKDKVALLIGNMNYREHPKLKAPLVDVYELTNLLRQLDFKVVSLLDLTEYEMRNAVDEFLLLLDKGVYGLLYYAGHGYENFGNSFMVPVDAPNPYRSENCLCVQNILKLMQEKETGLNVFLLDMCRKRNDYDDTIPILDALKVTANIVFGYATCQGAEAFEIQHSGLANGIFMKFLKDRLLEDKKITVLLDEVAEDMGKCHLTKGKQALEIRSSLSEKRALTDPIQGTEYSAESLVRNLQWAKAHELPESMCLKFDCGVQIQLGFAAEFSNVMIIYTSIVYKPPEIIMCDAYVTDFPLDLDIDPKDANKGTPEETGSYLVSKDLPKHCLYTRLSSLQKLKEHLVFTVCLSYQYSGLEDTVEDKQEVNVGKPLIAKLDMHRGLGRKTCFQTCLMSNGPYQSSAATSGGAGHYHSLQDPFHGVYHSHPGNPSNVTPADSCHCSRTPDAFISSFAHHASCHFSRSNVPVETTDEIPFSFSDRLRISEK

For assay [1], the target named is MALT1 (human (endogenous in platelets)) (UniProt Q9UDY8). Nature of the assay: co-IP; as a1, but unstimulated platelets; precipitated with anti-MALT1; immunoblot.
The target is the same in assay [2]. Briefly: co-IP; endogenous proteins; washed human platelets stimulated with thrombin (0.025 U/mL, 3 min), lysed, precleared with rabbit IgG and Protein A-Sepharose; precipitated with antibody to the bait (anti-MALT1, anti-IKKα or anti-syntaxin-11) and Protein A-Sepharose; SDS-PAGE and immunoblot. On the technique in general: Immunoblotting shows a protein as a band on a membrane.

The target of assay [3] is T1, IKKα (human (endogenous in platelets)) (UniProt O15111).
T1 sequence: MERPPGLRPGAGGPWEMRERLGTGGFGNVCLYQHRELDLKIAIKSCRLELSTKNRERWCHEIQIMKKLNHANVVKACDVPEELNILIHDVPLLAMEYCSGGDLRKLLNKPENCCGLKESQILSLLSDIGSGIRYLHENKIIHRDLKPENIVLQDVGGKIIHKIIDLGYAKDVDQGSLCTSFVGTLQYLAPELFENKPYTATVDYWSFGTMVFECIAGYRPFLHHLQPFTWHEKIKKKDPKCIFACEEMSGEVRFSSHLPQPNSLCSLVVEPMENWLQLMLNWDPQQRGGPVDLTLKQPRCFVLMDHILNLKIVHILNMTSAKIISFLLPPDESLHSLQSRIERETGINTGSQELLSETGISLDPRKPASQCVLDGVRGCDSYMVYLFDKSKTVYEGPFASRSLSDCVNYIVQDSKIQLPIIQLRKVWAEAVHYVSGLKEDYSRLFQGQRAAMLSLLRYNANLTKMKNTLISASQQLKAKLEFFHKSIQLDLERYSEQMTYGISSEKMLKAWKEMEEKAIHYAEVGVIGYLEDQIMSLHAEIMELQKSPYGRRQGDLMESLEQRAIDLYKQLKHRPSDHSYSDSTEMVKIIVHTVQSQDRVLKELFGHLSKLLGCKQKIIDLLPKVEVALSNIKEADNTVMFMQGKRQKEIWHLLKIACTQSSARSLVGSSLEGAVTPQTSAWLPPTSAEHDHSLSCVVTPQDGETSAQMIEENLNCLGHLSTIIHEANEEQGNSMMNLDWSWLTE
Briefly: condition: only platelets pretreated with MG132 (10 μM) before thrombin; co-IP; as a1, but platelets pretreated with the proteasome inhibitor MG132 (10 μM, 3 min) before thrombin (0.025 U/mL, 3 min); precipitated with anti-MALT1, anti-IKKα or anti-syntaxin-11; immunoblot.

Assay [4] addresses T1, IKKα (human (endogenous in platelets)). Nature of the assay: co-IP; endogenous proteins; washed human platelets stimulated with thrombin (0.025 U/mL, 3 min), lysed, precleared with rabbit IgG and Protein A-Sepharose; precipitated with antibody to the bait (anti-MALT1, anti-IKKα or anti-syntaxin-11) and Protein A-Sepharose; SDS-PAGE and immunoblot.

These are yes or no findings as the source states them, for the method shown. Binding seen in cells or lysates may run through a third protein. Some entries that bind do so weakly or less than the wild type.

B1: Bcl10 (protein, UniProt O95999 1-233)
chain: MEPTAPSLTEEDLTEVKKDALENLRVYLCEKIIAERHFDHLRAKKILSREDTEEISCRTSSRKRAGKLLDYLQENPKGLDTLVESIRREKTQNFLIQKITDEVLKLRNIKLEHLKGLKCSSCEPFPDGATNNLSRSNSDESNFSEKLRASTVMYHPEGESSTTPFFSTNSSLNLPVLEVGRTENTIFSSTTLPRPGDPGAPPLPPDLQLEEEGTCANSSEMFLPLRSRTVSRQ
Consider B1, for which the values for the binding entry in assay [1] and in assay [2] were “no binding (condition: unstimulated platelets)” and “binds”, respectively.

B2: CARMA1 (protein, UniProt Q9BXL7 1-1154)
chain: MPGGGPEMDDYMETLKDEEDALWENVECNRHMLSRYINPAKLTPYLRQCKVIDEQDEDEVLNAPMLPSKINRAGRLLDILHTKGQRGYVVFLESLEFYYPELYKLVTGKEPTRRFSTIVVEEGHEGLTHFLMNEVIKLQQQMKAKDLQRCELLARLRQLEDEKKQMTLTRVELLTFQERYYKMKEERDSYNDELVKVKDDNYNLAMRYAQLSEEKNMAVMRSRDLQLEIDQLKHRLNKMEEECKLERNQSLKLKNDIENRPKKEQVLELERENEMLKTKNQELQSIIQAGKRSLPDSDKAILDILEHDRKEALEDRQELVNRIYNLQEEARQAEELRDKYLEEKEDLELKCSTLGKDCEMYKHRMNTVMLQLEEVERERDQAFHSRDEAQTQYSQCLIEKDKYRKQIRELEEKNDEMRIEMVRREACIVNLESKLRRLSKDSNNLDQSLPRNLPVTIISQDFGDASPRTNGQEADDSSTSEESPEDSKYFLPYHPPQRRMNLKGIQLQRAKSPISLKRTSDFQAKGHEEEGTDASPSSCGSLPITNSFTKMQPPRSRSSIMSITAEPPGNDSIVRRYKEDAPHRSTVEEDNDSGGFDALDLDDDSHERYSFGPSSIHSSSSSHQSEGLDAYDLEQVNLMFRKFSLERPFRPSVTSVGHVRGPGPSVQHTTLNGDSLTSQLTLLGGNARGSFVHSVKPGSLAEKAGLREGHQLLLLEGCIRGERQSVPLDTCTKEEAHWTIQRCSGPVTLHYKVNHEGYRKLVKDMEDGLITSGDSFYIRLNLNISSQLDACTMSLKCDDVVHVRDTMYQDRHEWLCARVDPFTDHDLDMGTIPSYSRAQQLLLVKLQRLMHRGSREEVDGTHHTLRALRNTLQPEEALSTSDPRVSPRLSRASFLFGQLLQFVSRSENKYKRMNSNERVRIISGSPLGSLARSSLDATKLLTEKQEELDPESELGKNLSLIPYSLVRAFYCERRRPVLFTPTVLAKTLVQRLLNSGGAMEFTICKSDIVTRDEFLRRQKTETIIYSREKNPNAFECIAPANIEAVAAKNKHCLLEAGIGCTRDLIKSNIYPIVLFIRVCEKNIKRFRKLLPRPETEEEFLRVCRLKEKELEALPCLYATVEPDMWGSVEELLRVVKDKIGEEQRKTIWVDEDQL
Consider B2, for which the binding entry in assay [1] was “no binding (condition: unstimulated platelets)”; in assay [2] it was “binds”.

B3: IKKβ (protein, UniProt O14920 1-756)
chain: MSWSPSLTTQTCGAWEMKERLGTGGFGNVIRWHNQETGEQIAIKQCRQELSPRNRERWCLEIQIMRRLTHPNVVAARDVPEGMQNLAPNDLPLLAMEYCQGGDLRKYLNQFENCCGLREGAILTLLSDIASALRYLHENRIIHRDLKPENIVLQQGEQRLIHKIIDLGYAKELDQGSLCTSFVGTLQYLAPELLEQQKYTVTVDYWSFGTLAFECITGFRPFLPNWQPVQWHSKVRQKSEVDIVVSEDLNGTVKFSSSLPYPNNLNSVLAERLEKWLQLMLMWHPRQRGTDPTYGPNGCFKALDDILNLKLVHILNMVTGTIHTYPVTEDESLQSLKARIQQDTGIPEEDQELLQEAGLALIPDKPATQCISDGKLNEGHTLDMDLVFLFDNSKITYETQISPRPQPESVSCILQEPKRNLAFFQLRKVWGQVWHSIQTLKEDCNRLQQGQRAAMMNLLRNNSCLSKMKNSMASMSQQLKAKLDFFKTSIQIDLEKYSEQTEFGITSDKLLLAWREMEQAVELCGRENEVKLLVERMMALQTDIVDLQRSPMGRKQGGTLDDLEEQARELYRRLREKPRDQRTEGDSQEMVRLLLQAIQSFEKKVRVIYTQLSKTVVCKQKALELLPKVEEVVSLMNEDEKTVVRLQEKRQKELWNLLKIACSKVRGPVSGSPDSMNASRLSQPGQLMSQPSTASNSLPEPAKKSEELVAEAHNLCTLLENAIQDTVREQDQSFTALDWSWLQTEEEEHSCLEQAS
For B3, the binding result in assay [3] is given as “no binding”; in assay [4], “binds”.
